{"source": "PubChem BioAssay (NCI)", "test_in_all_cases": "inhibition of tumour cell growth, NCI panel, 48 h", "key": {"[1]": {"tested_on": "786-0 renal"}, "[2]": {"tested_on": "A498 renal"}, "[3]": {"tested_on": "A549 NSCLC"}, "[4]": {"tested_on": "ACHN renal"}, "[5]": {"tested_on": "BT-549 breast"}, "[6]": {"tested_on": "CAKI-1 renal"}, "[7]": {"tested_on": "COLO 205 colon"}, "[8]": {"tested_on": "DU-145 prostate"}, "[9]": {"tested_on": "EKVX NSCLC"}, "[10]": {"tested_on": "HCC-2998 colon"}, "[11]": {"tested_on": "HCT-116 colon"}, "[12]": {"tested_on": "HCT-15 colon"}, "[13]": {"tested_on": "HL-60(TB) leukemia"}, "[14]": {"tested_on": "HOP-62 NSCLC"}, "[15]": {"tested_on": "HS 578T breast"}, "[16]": {"tested_on": "HT29 colon"}, "[17]": {"tested_on": "IGROV1 ovarian"}, "[18]": {"tested_on": "K-562 leukemia"}, "[19]": {"tested_on": "KM12 colon"}, "[20]": {"tested_on": "LOX IMVI melanoma"}, "[21]": {"tested_on": "M14 melanoma"}, "[22]": {"tested_on": "MCF7 breast"}, "[23]": {"tested_on": "MDA-MB-231 breast"}, "[24]": {"tested_on": "MDA-MB-435"}, "[25]": {"tested_on": "MOLT-4 leukemia"}, "[26]": {"tested_on": "NCI-H226 lung"}, "[27]": {"tested_on": "NCI-H23 lung"}, "[28]": {"tested_on": "NCI-H460 lung"}, "[29]": {"tested_on": "NCI-H522 lung"}, "[30]": {"tested_on": "OVCAR-3 ovarian"}, "[31]": {"tested_on": "OVCAR-4 ovarian"}, "[32]": {"tested_on": "OVCAR-5 ovarian"}, "[33]": {"tested_on": "OVCAR-8 ovarian"}, "[34]": {"tested_on": "PC-3 prostate"}, "[35]": {"tested_on": "RXF 393 renal"}, "[36]": {"tested_on": "SF-268 CNS"}, "[37]": {"tested_on": "SF-295 CNS"}, "[38]": {"tested_on": "SF-539 CNS"}, "[39]": {"tested_on": "SK-MEL-2 melanoma"}, "[40]": {"tested_on": "SK-MEL-28 melanoma"}, "[41]": {"tested_on": "SK-MEL-5 melanoma"}, "[42]": {"tested_on": "SK-OV-3 ovarian"}, "[43]": {"tested_on": "SN12C renal"}, "[44]": {"tested_on": "SNB-19 CNS"}, "[45]": {"tested_on": "SNB-75 CNS"}, "[46]": {"tested_on": "SW-620 colon"}, "[47]": {"tested_on": "T-47D breast"}, "[48]": {"tested_on": "TK-10 renal"}, "[49]": {"tested_on": "U251 CNS"}, "[50]": {"tested_on": "UACC-257 melanoma"}, "[51]": {"tested_on": "UACC-62 melanoma"}, "[52]": {"tested_on": "UO-31 renal"}}, "note": "Values joined by “and” are separate entries in the source; they are usually repeats but may differ in a detail not shown here. Equal values may be shown once.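 1) Cells in 96-well plates. 2) Compound, 48 h, 5 concentrations. 3) Linear interpolation between surrounding doses. 4) Unreached endpoint = highest concentration. GI50 marks 50% less growth. TGI: concentration producing complete growth inhibition.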 Active and inactive are the calls of the source.", "data": [{"smiles": "O=C(CCCCCCC(=O)Nc1ccccc1)NO", "values": [{"measurement": "GI50", "setting": "[1]", "value": "inactive"}, {"measurement": "TGI", "setting": "[1]", "value": "15 µM and 55.2 µM"}, {"measurement": "GI50", "setting": "[2]", "value": "inactive"}, {"measurement": "TGI", "setting": "[2]", "value": "2.96 µM and 6.69 µM"}, {"measurement": "GI50", "setting": "[3]", "value": "inactive"}, {"measurement": "TGI", "setting": "[3]", "value": "> 100 µM and 22.1 µM"}, {"measurement": "GI50", "setting": "[4]", "value": "inactive"}, {"measurement": "TGI", "setting": "[4]", "value": "6.24 µM and 7.52 µM"}, {"measurement": "GI50", "setting": "[5]", "value": "inactive"}, {"measurement": "TGI", "setting": "[5]", "value": "14.5 µM and 23.5 µM"}, {"measurement": "GI50", "setting": "[6]", "value": "inactive"}, {"measurement": "TGI", "setting": "[6]", "value": "2.98 µM and 3.95 µM"}, {"measurement": "GI50", "setting": "[7]", "value": "inactive"}, {"measurement": "TGI", "setting": "[7]", "value": "2.59 µM and 2.63 µM"}, {"measurement": "GI50", "setting": "[8]", "value": "inactive"}, {"measurement": "TGI", "setting": "[8]", "value": "30.4 µM and 17.9 µM"}, {"measurement": "GI50", "setting": "[9]", "value": "inactive"}, {"measurement": "TGI", "setting": "[9]", "value": "> 100 µM and 52.9 µM"}, {"measurement": "GI50", "setting": "[10]", "value": "inactive"}, {"measurement": "TGI", "setting": "[10]", "value": "4.24 µM and 15.2 µM"}, {"measurement": "GI50", "setting": "[11]", "value": "0.377 µM and 0.388 µM"}, {"measurement": "TGI", "setting": "[11]", "value": "1.46 µM and 5.88 µM"}, {"measurement": "GI50", "setting": "[12]", "value": "inactive"}, {"measurement": "TGI", "setting": "[12]", "value": "> 100 µM and 85 µM"}, {"measurement": "GI50", "setting": "[13]", "value": "inactive"}, {"measurement": "TGI", "setting": "[13]", "value": "30.7 µM and 14 µM"}, {"measurement": "GI50", "setting": "[14]", "value": "inactive"}, {"measurement": "TGI", "setting": "[14]", "value": "33.9 µM and 77.3 µM"}, {"measurement": "GI50", "setting": "[15]", "value": "inactive"}, {"measurement": "TGI", "setting": "[15]", "value": "> 100 µM and 70 µM"}, {"measurement": "GI50", "setting": "[16]", "value": "inactive"}, {"measurement": "TGI", "setting": "[16]", "value": "> 100 µM and 15.6 µM"}, {"measurement": "GI50", "setting": "[17]", "value": "inactive"}, {"measurement": "TGI", "setting": "[17]", "value": "9.28 µM and 8.15 µM"}, {"measurement": "GI50", "setting": "[18]", "value": "inactive"}, {"measurement": "TGI", "setting": "[18]", "value": 11.9, "unit": "µM"}, {"measurement": "GI50", "setting": "[19]", "value": "inactive"}, {"measurement": "TGI", "setting": "[19]", "value": "19.6 µM and 22.9 µM"}, {"measurement": "GI50", "setting": "[20]", "value": "inactive"}, {"measurement": "TGI", "setting": "[20]", "value": "3.37 µM and 10.2 µM"}, {"measurement": "GI50", "setting": "[21]", "value": "inactive"}, {"measurement": "TGI", "setting": "[21]", "value": "9.8 µM and 20.2 µM"}, {"measurement": "GI50", "setting": "[22]", "value": "inactive"}, {"measurement": "TGI", "setting": "[22]", "value": "> 100 µM and 41.2 µM"}, {"measurement": "GI50", "setting": "[23]", "value": "inactive"}, {"measurement": "TGI", "setting": "[23]", "value": "> 100", "unit": "µM"}, {"measurement": "GI50", "setting": "[24]", "value": "inactive"}, {"measurement": "TGI", "setting": "[24]", "value": "7.63 µM and 5.91 µM"}, {"measurement": "GI50", "setting": "[25]", "value": "0.321 µM and 0.369 µM"}, {"measurement": "TGI", "setting": "[25]", "value": "4.33 µM and 11.1 µM"}, {"measurement": "GI50", "setting": "[26]", "value": "inactive"}, {"measurement": "TGI", "setting": "[26]", "value": "22.4 µM and 64.2 µM"}, {"measurement": "GI50", "setting": "[27]", "value": "inactive"}, {"measurement": "TGI", "setting": "[27]", "value": "11.7 µM and 9.81 µM"}, {"measurement": "GI50", "setting": "[28]", "value": "inactive"}, {"measurement": "TGI", "setting": "[28]", "value": "> 100 µM and 71.4 µM"}, {"measurement": "GI50", "setting": "[29]", "value": "inactive"}, {"measurement": "TGI", "setting": "[29]", "value": "5.96 µM and 6.9 µM"}, {"measurement": "GI50", "setting": "[30]", "value": "inactive"}, {"measurement": "TGI", "setting": "[30]", "value": "17.2 µM and 9.77 µM"}, {"measurement": "GI50", "setting": "[31]", "value": "inactive"}, {"measurement": "TGI", "setting": "[31]", "value": "> 100 µM and 97.5 µM"}, {"measurement": "GI50", "setting": "[32]", "value": "inactive"}, {"measurement": "TGI", "setting": "[32]", "value": "6.49 µM and 11.4 µM"}, {"measurement": "GI50", "setting": "[33]", "value": "inactive"}, {"measurement": "TGI", "setting": "[33]", "value": "> 100 µM and 22.5 µM"}, {"measurement": "GI50", "setting": "[34]", "value": "inactive"}, {"measurement": "TGI", "setting": "[34]", "value": "> 100 µM and 67 µM"}, {"measurement": "GI50", "setting": "[35]", "value": "inactive"}, {"measurement": "TGI", "setting": "[35]", "value": "2.46 µM and 5.42 µM"}, {"measurement": "GI50", "setting": "[36]", "value": "inactive"}, {"measurement": "TGI", "setting": "[36]", "value": "15.3 µM and 33.4 µM"}, {"measurement": "GI50", "setting": "[37]", "value": "inactive"}, {"measurement": "TGI", "setting": "[37]", "value": "6.02 µM and 9 µM"}, {"measurement": "GI50", "setting": "[38]", "value": "inactive"}, {"measurement": "TGI", "setting": "[38]", "value": "> 100 µM and 48.3 µM"}, {"measurement": "GI50", "setting": "[39]", "value": "inactive"}, {"measurement": "TGI", "setting": "[39]", "value": "> 100 µM and 17.1 µM"}, {"measurement": "GI50", "setting": "[40]", "value": "inactive"}, {"measurement": "TGI", "setting": "[40]", "value": "6.74 µM and 8.51 µM"}, {"measurement": "GI50", "setting": "[41]", "value": "inactive"}, {"measurement": "TGI", "setting": "[41]", "value": "1.8 µM and 2.67 µM"}, {"measurement": "GI50", "setting": "[42]", "value": "inactive"}, {"measurement": "TGI", "setting": "[42]", "value": "6.12 µM and 13.2 µM"}, {"measurement": "GI50", "setting": "[43]", "value": "inactive"}, {"measurement": "TGI", "setting": "[43]", "value": "93.4 µM and 30.6 µM"}, {"measurement": "GI50", "setting": "[44]", "value": "inactive"}, {"measurement": "TGI", "setting": "[44]", "value": "54.1 µM and 17.9 µM"}, {"measurement": "GI50", "setting": "[45]", "value": "inactive"}, {"measurement": "TGI", "setting": "[45]", "value": "> 100 µM and 55.2 µM"}, {"measurement": "GI50", "setting": "[46]", "value": "inactive"}, {"measurement": "TGI", "setting": "[46]", "value": "19.4 µM and 8.89 µM"}, {"measurement": "GI50", "setting": "[47]", "value": "inactive"}, {"measurement": "TGI", "setting": "[47]", "value": "26.6 µM and 4.36 µM"}, {"measurement": "GI50", "setting": "[48]", "value": "inactive"}, {"measurement": "TGI", "setting": "[48]", "value": "22.2 µM and 8.04 µM"}, {"measurement": "GI50", "setting": "[49]", "value": "inactive"}, {"measurement": "TGI", "setting": "[49]", "value": "5.58 µM and 12.5 µM"}, {"measurement": "GI50", "setting": "[50]", "value": "inactive"}, {"measurement": "TGI", "setting": "[50]", "value": "9.79 µM and 9.37 µM"}, {"measurement": "TGI", "setting": "[51]", "value": "1.83 µM and 2.75 µM"}, {"measurement": "GI50", "setting": "[52]", "value": "inactive"}, {"measurement": "TGI", "setting": "[52]", "value": "7.58 µM and 6.32 µM"}]}]}
